Experimental data published in PubChem BioAssay AID686992 (Broad Institute, 2013).
In all, about 260,000 compounds went through this assay and about 960 (0.37%) were called active. The shares of active, inactive and inconclusive entries below differ from those in the screen.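 Rule for the calls: active = mean E-selectin-positive cell signal at least 10% of the positive control, reached in at least 60% of replicates, without over 20% cell loss; inconclusive = no rule given, readout overlaps actives, possibly toxicity-flagged; inactive = the rest, including those meeting only one limit.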

Each compound was assayed against E-selectin (Homo sapiens) (UniProt P16581) (assay: inducers of endothelial E-selectin expression – imaging, HUVEC, immunofluorescence imaging, single point, primary screen (AID 686992;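 note: signal is the percent of cells scored E-selectin positive by PE staining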)). Conditions: at 7.58 µM, stronger effect = higher value, normalized: neutral wells 0, TNF-alpha wells 100.
UniProt P16581, sequence (P16581 whole entry, looked up): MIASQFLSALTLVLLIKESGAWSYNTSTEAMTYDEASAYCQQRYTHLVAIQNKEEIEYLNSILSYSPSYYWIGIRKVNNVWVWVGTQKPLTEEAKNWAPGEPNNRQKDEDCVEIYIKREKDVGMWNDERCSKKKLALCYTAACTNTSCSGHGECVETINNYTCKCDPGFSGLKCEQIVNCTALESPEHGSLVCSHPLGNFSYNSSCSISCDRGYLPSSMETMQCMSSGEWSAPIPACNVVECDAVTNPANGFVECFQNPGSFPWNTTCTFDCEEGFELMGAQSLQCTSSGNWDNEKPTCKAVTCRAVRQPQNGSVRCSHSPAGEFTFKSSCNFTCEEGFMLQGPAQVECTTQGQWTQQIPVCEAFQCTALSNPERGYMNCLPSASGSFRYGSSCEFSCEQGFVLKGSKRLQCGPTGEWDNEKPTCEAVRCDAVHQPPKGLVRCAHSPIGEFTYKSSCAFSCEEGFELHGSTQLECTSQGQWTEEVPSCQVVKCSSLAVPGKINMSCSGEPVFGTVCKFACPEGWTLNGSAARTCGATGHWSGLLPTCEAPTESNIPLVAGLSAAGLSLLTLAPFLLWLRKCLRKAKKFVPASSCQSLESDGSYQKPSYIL
Summary of the method: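 Test system: HUVEC | Signal: Immunofluorescence imaging | Read-out: Percent E-selectin-positive cells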
With `C[C@H](CO)N1C[C@H](C)[C@@H](CN(C)S(=O)(=O)c2ccc(F)cc2)Oc2c(NC(=O)NC3CCCCC3)cccc2C1=O` the activation was inconclusive: 33.1%. `C[C@H]1CN([C@@H](C)CO)S(=O)(=O)c2ccc(C#CCN(C)C)cc2O[C@@H]1CN(C)C` was tested, and the activation was inconclusive: 61.3%. `c1ccc(-c2n[nH]c(-c3ccccn3)n2)nc1` was tested, and the activation was inconclusive: 39.9%. In the case of `Cc1cc(C)c(S(=O)(=O)NCCn2c(C)cc3ccccc32)c(C)c1`, the activation is reported as active: 101%. With `O=C1c2ccsc2SCCN1Cc1cccc(F)c1` the activation was inconclusive: 42.1%. In the case of `CCOC(=O)c1c(NC(=O)CC)sc2c1CCN(Cc1ccccc1)C2`, the activation is reported as inactive: 0.483%. `CC(C)Cn1cnc2c(N)nc3ccccc3c21` was tested, and the activation was inconclusive: 31.7%. With `O=C(CSc1nnc(NC(=O)c2ccco2)s1)Nc1ccc2c(c1)OCCO2` the activation was inconclusive: 34.2%. `COc1cccc(C(=O)N2C[C@@H]3[C@H](c4ccccc42)[C@@H](CO)N3C(=O)c2ccccc2)c1` was tested, and the activation was inactive: -0.333%. For `C[C@@H]1CN([C@@H](C)CO)C(=O)Cc2cc(NC(=O)c3ccncc3)ccc2O[C@@H]1CN(C)S(C)(=O)=O`, the activation was active: 37.1%. With `CC(=O)N(C)C[C@H]1Oc2cc(-c3cccc(C#N)c3)ccc2S(=O)(=O)N([C@H](C)CO)C[C@H]1C` the activation was inactive: -0.07%. For `CCOc1cc(/C=C2/N=C(c3ccc4c(c3)OCO4)OC2=O)ccc1OC(C)=O`, the activation was inconclusive: 31.1%. For `Clc1ccc(COc2cccc(CNCc3ccncc3)c2)cc1`, the activation was inconclusive: 61%. In the case of `C[C@H](CO)N1C[C@H](C)[C@@H](CN(C)C(=O)NC2CCCCC2)Oc2ccc(NC(=O)Nc3ccc(C(F)(F)F)cc3)cc2C1=O`, the activation is reported as inconclusive: 213%. In the case of `C[C@H](CO)N1C[C@H](C)[C@@H](CN(C)C(=O)Nc2ccccc2)Oc2ccc(NC(=O)C3CC3)cc2C1=O`, the activation is reported as inconclusive: 47%. `O=C1Oc2ccccc2C(=O)/C1=C/N1CCN(c2ccccc2F)CC1` was tested, and the activation was inactive: -3.56%. `[O-][n+]1c2ccccc2c2n1CCN=C2c1ccc(Cl)cc1` was tested, and the activation was inconclusive: 27.5%. For `CCCN1[C@H](CO)[C@H](c2ccc(C#Cc3ccccc3)cc2)[C@@H]1CNC1CCCC1`, the activation was inconclusive: 85.4%. `CN(C)CC(=O)Nc1ccc2c(c1)[C@H]1C[C@H](CC(=O)N3CCc4ccccc4C3)O[C@@H](CO)[C@H]1O2` was tested, and the activation was inactive: -0.52%. `C[C@H](CO)N1C[C@H](C)[C@@H](CN(C)S(C)(=O)=O)Oc2ccc(NC(=O)C3CCCCC3)cc2CC1=O` was tested, and the activation was active: 26.9%. `CC(c1ccccc1)N(C)CC(=O)NC(=O)NCCC1=CCCCC1` (configuration not stated) was tested, and the activation was inconclusive: 71.2%. With `CC(=O)c1cccc(NC(=O)c2ccc(-c3ccccc3[N+](=O)[O-])o2)c1` the activation was inactive: -0.377%. In the case of `C[C@@H]1CN([C@@H](C)CO)S(=O)(=O)c2ccc(C#CC3CC3)cc2O[C@@H]1CN(C)Cc1cccnc1`, the activation is reported as inconclusive: 100%. For `CCCCN(C)c1c(C)nc2ccc(C(=O)N(CC)CCN(C)C)cn12`, the activation was inconclusive: 46.5%. `COCCn1cnc2c(c1=O)c1nc3ccccc3nc1n2/N=C/c1cccc(OC)c1` was tested, and the activation was inconclusive: 29.7%. `C[C@H](CO)N1C[C@H](C)[C@H](CN(C)CC2CCCCC2)Oc2ccc(NC(=O)Nc3ccc4c(c3)OCO4)cc2C1=O` was tested, and the activation was active: 349%. With `COc1cccc(S(=O)(=O)N(C)C[C@H]2Oc3cc(C4=CCCCC4)ccc3S(=O)(=O)N([C@@H](C)CO)C[C@@H]2C)c1` the activation was inactive: -0.304%. In the case of `COc1ccccc1CC(O)CC1c2c(cc3c(c2OC)OCO3)CCN1C` (configuration not stated), the activation is reported as inconclusive: 38.7%. In the case of `Cc1ccc(CN(C)C(=O)CN2C(=O)NC3(CCCc4ccccc43)C2=O)c(C)c1` (configuration not stated), the activation is reported as inconclusive: 46.5%. With `CCOC(=O)[C@]12CCCC=C1N(Cc1ccccc1)C(=O)[C@H](CC(=O)NCc1cccc3ccccc13)C2` the activation was inconclusive: 141%. With `Cc1cccc(OC(C)C(=O)N/N=C\c2ccncc2)c1` (configuration not stated) the activation was active: 372%. For `Cc1cccc(NC(=O)NNS(=O)(=O)c2ccc(F)cc2)c1`, the activation was inactive: -1.65%. `O=C(Nc1cc(F)ccc1F)N1CC(=O)N2[C@H](C1)[C@@H](c1ccc(-c3cccnc3)cc1)[C@@H]2CO` was tested, and the activation was inactive: -0.095%. With `C[C@H]1CCCCO[C@H](CN(C)C(=O)Nc2ccc(F)cc2)[C@@H](C)CN([C@@H](C)CO)C(=O)c2cc(NC(=O)Cc3ccccc3)ccc2O1` the activation was inconclusive: 62.4%. In the case of `O=C(NC(=S)N(CC1CCC1)CC1CCCO1)c1cccc([N+](=O)[O-])c1` (configuration not stated), the activation is reported as inconclusive: 26.2%. For `O=C(N[C@H](C(=O)N1CCC[C@H]1C(=O)NC1CCCC1)c1ccccc1)c1ccccc1`, the activation was inconclusive: 35.7%. In the case of `CCCn1cnnc1CNC(=O)C1CCC(=O)N(CCCc2ccccc2)C1` (configuration not stated), the activation is reported as inconclusive: 28.8%. `COC(=O)[C@@]1(Cc2ccc(OC)cc2)[C@H]2c3cc(C(=O)N4CCCC4)n(CCc4ccc(OC)c(Br)c4)c3C[C@H]2CN1C(=O)c1ccccc1` was tested, and the activation was inconclusive: 74.9%. With `Cc1noc(C)c1S(=O)(=O)N(C)C[C@@H]1Oc2ccc(NS(C)(=O)=O)cc2C(=O)N([C@H](C)CO)C[C@@H]1C` the activation was inconclusive: 46.2%. In the case of `C[C@H](CO)N1C[C@H](C)[C@H](CN(C)S(=O)(=O)c2cccs2)Oc2c(NC(=O)Nc3ccccc3)cccc2C1=O`, the activation is reported as inconclusive: 41.9%. With `CCOc1ccc2ncc(S(=O)(=O)c3ccc(C)cc3)c(N3CCC4(CC3)OCCO4)c2c1` the activation was active: 140%. With `COc1ccc(C2NCCc3sccc32)cc1` (configuration not stated) the activation was inconclusive: 47%. `COc1ccc(C(C(=O)NC(C)(C)C)N(C(=O)Cn2nnc3ccccc32)c2ccc(C(C)=O)cc2)cc1O` (configuration not stated) was tested, and the activation was inconclusive: 66.3%. In the case of `OC(c1ccc(F)cc1)c1nc(-c2ccncc2)cs1` (configuration not stated), the activation is reported as inconclusive: 57.7%. With `C[C@@H]1CN([C@H](C)CO)C(=O)c2cc(NS(C)(=O)=O)ccc2O[C@@H]1CN(C)Cc1ccc(C(F)(F)F)cc1` the activation was active: 110%. In the case of `CC(=O)Nc1cccc(-c2ccnc3c2CC(C(=O)Nc2cccc(NS(C)(=O)=O)c2)O3)c1` (configuration not stated), the activation is reported as inconclusive: 26.2%. For `O=C1/C(=C/c2cccnc2)SC(=S)N1CC1CCCO1` (configuration not stated), the activation was inconclusive: 38.7%. With `CC(C)CC#Cc1ccc2c(c1)O[C@@H](CN(C)C(=O)CN(C)C)[C@@H](C)CN([C@H](C)CO)S2(=O)=O` the activation was inactive: -0.021%. For `C[C@@H]1CN([C@@H](C)CO)C(=O)c2cc(-c3cccc(F)c3)cnc2O[C@@H]1CN(C)C(=O)c1cccc(F)c1`, the activation was inactive: 0.407%. `C[C@H](CO)N1C[C@H](C)[C@@H](CN(C)Cc2ccc(Oc3ccccc3)cc2)OCc2ccccc2-c2ccccc2C1=O` was tested, and the activation was inactive: 15.3%. `C[C@@H]1CN([C@H](C)CO)C(=O)c2cc(C3=CCCC3)cnc2O[C@H]1CN(C)C(=O)Nc1ccccc1` was tested, and the activation was active: 48.6%. `COc1ccc2c3c([nH]c2c1)[C@@H](CO)N(Cc1ccccn1)CC31CN(C(=O)c2ccccn2)C1` was tested, and the activation was inconclusive: 62%. For `COCCCNC(=O)CSc1nc2cc(C(=O)NCCOC)ccc2c(=O)n1Cc1ccc2c(c1)OCO2`, the activation was inconclusive: 39.3%. With `CC(=O)C1=C(C)Nc2ncnn2C1c1ccc(O)cc1` (configuration not stated) the activation was active: 44.1%. With `CC(=O)NC(c1ccccc1)c1nc(-c2cncnc2)cs1` (configuration not stated) the activation was inconclusive: 56.1%. In the case of `O=C(c1c(F)cccc1F)N(Cc1ccccc1)Cc1ccccc1`, the activation is reported as active: 31.7%. In the case of `C/C(=N/NS(=O)(=O)c1ccc(C)cc1)[C@H]1C[C@@H]1c1ccccc1`, the activation is reported as inconclusive: 53.6%. In the case of `CCCCCCCCCc1nc2sc3c(c2c(=O)n1NC(=O)c1ccccc1[N+](=O)[O-])CC(C)(C)OC3`, the activation is reported as inconclusive: 63.5%. In the case of `Cc1cc(C(=O)CN2CCN(CC(=O)Nc3ccc(F)cc3)CC2)c(C)n1C1CC1`, the activation is reported as inactive: -0.0025%. With `CCCN(C)C[C@H]1Oc2cc(C3=CCCCC3)ccc2S(=O)(=O)N([C@H](C)CO)C[C@@H]1C` the activation was inconclusive: 33.1%. In the case of `Cc1ccc(S(=O)(=O)N2CC[C@@H]3[C@@H](CO)Nc4ccc(C#Cc5cccc(F)c5)cc4[C@@H]32)cc1`, the activation is reported as inconclusive: 61.8%. In the case of `O=C(C[C@@H]1CC[C@H]2[C@@H](COC[C@@H](O)CN2S(=O)(=O)c2cccc(Cl)c2)O1)N1CCOCC1`, the activation is reported as inactive: 0.0035%. In the case of `C[C@@H]1CN([C@@H](C)CO)C(=O)c2cccc(NC(=O)Nc3ccccc3)c2O[C@H]1CN(C)S(=O)(=O)c1ccccc1`, the activation is reported as inconclusive: 87%. For `CC(C)c1nnc(NC(=O)CCC(=O)N2CCN(c3ccc(F)cc3)CC2)s1`, the activation was inconclusive: 28.1%. In the case of `C[C@H](CO)N1C[C@H](C)[C@H](CN(C)Cc2ccc(Cl)c(Cl)c2)Oc2ccc(NS(=O)(=O)c3cccs3)cc2C1=O`, the activation is reported as inconclusive: 109%. With `CCN(CC)CCNC(=O)c1nn(-c2ccc(Cl)cc2)c2c1CCc1cc(OC)ccc1-2` the activation was inconclusive: 46.8%. In the case of `CCN(C(=O)Cn1c(=O)oc2cc(S(=O)(=O)N3CCCC3)ccc21)c1ccc(OC)cc1`, the activation is reported as inconclusive: 54.1%. For `O=C(NC(=S)N1CCN(c2ccc([N+](=O)[O-])cc2)CC1)c1ccccc1`, the activation was active: 33.1%. `CC(C)N(Cc1ccccc1)C(=O)/C=C/c1ccccc1[N+](=O)[O-]` was tested, and the activation was inconclusive: 59.7%. `CCN(CC)C(=O)[C@H]1C[C@H](CC(=O)NCCc2ccccn2)C(=O)N2CCc3c([nH]c4cc(-c5ccco5)ccc34)[C@]12C` was tested, and the activation was inactive: 2.03%. In the case of `CC(OC(=O)c1ccc(Cl)cc1)C(=O)NCC1CCCCC1` (configuration not stated), the activation is reported as inactive: 4.01%. With `Cc1cc(=O)oc2c(CN3CCN(CCO)CC3)c(O)ccc12` the activation was inactive: -0.108%.
